From paper PMC6555848 (2019)

Assays:
full-length STAT5B^N642H [1] = molecular target: T1, full-length STAT5B^N642H (human, UniProt P51692 1-787, N642H); test: SPR; two-state model, kd1
full-length STAT5B^N642H [2] = molecular target: T1, full-length STAT5B^N642H; test: SPR; two-state model

B1: His-tagged ABL1 kinase (enzyme)
chain: MLEICLKLVGCKSKKGLSSSSSCYLEEALQRPVASDFEPQGLSEAARWNSKENLLAGPSE[in this place about 60 residues]LEKHSWYHGPVSRNAAEYLLSSGINGSFLVRESESSPGQRSISLRYEGRVYHYRINTASDGKLYVSSESRFNTLAELVHHHSTVADGLITTLHYPAPKRNKPTVYGVSPNYDKWEMERTDITMKHKLGGGQYGEVYEGVWKKYSLTVAVKTLKEDTMEVEEFLKEAAVMKEIKHPNLVQLLGVCTREPPFYIITEFMTYGNLLDYLRECNRQEVNAVVLLYMATQISSAMEYLEKKNFIHRDLAARNCLVGENHLVKVADFGLSRLMTGDTYTAHAGAKFPIKWTAPESLAYNKFSIKSDVWAFGVLLWEIATYGMSPYPGIDLSQVYELLEKDYRMERPEGCPEKVYELMRACWQWNPSDRPSFAEIHQAFETMFQESSISDEVEKELGKQGVRGAVSTLLQAPELPTKTRTSRRAAEHRDTTDVPEMPHSKGQGESDPLDHEPAVSPLLPRKERGPPEGGLNEDERLLPKDKKTNLFSALIKKKKKTAPTPPKRSSSFREMDGQPERRGAGEEEGRDISNGALAFTPLDTADPAKSPKPSNGAGVPNGALRESGGSGFRSPHLWKKSSTLTSSRLATGEEEGGGSSSKRFLRSCSASCVPHGAKDTEWRSVTLPRDLQSTGRQFDSSTFGGHKSEKPALPRKRAGENRSDQVTRGTVTPPPRLVKKNEEAADEVFKDIMESSPGSSPPNLTPKPLRRQVTVAPASGLPHKEEAGKGSALGTPAAAEPVTPTSKAGSGAPGGTSKGPAEESRVRRHKHSSESPGRDKGKLSRLKPAPPPPPAASAGKAGGKPSQSPSQEAAGEAVLGAKTKATSLVDAVNSDAAKPSQPGEGLKKPVLPATPKPQSAKPSGTPISPAPVPSTLPSASSALAGDQPSSTAFIPLISTRVSLRKTRQPPERIASGAITKGVVLDSTEALCLAISRNSEQMASHSAVLEAGKNLYTFCVSYVDSIQQMRNKFAFREAINKLENNLRELQICPATAGSGPAATQDFSKLLSSVKEISDIVQR
koff (full-length STAT5B^N642H [1]): 0.25 s⁻¹
Kd (full-length STAT5B^N642H [2]): 350 nM
